{"source": "PubChem BioAssay AID686978", "about": "(National Center for Advancing Translational Sciences (NCATS), 2013)", "note": "Values joined by “and” are separate entries in the source; they are usually repeats but may differ in a detail not shown here. Identical values can stand only once. The campaign covered roughly 420,000 compounds. About 64,000 (15%) were called active. The inconclusive results got no clear call from the source; some entries with a clear call stand among them for comparison. Calls come from the whole dose curve; as a rule, active = well fitted inhibition curve with a large enough effect; inconclusive = small, poorly fitted or top-dose-only effect; inactive = flat fitted curve, though single readings scatter. No potency is given beside an inconclusive call; the fits are too rough. % is set by controls: 0 for no effect and ±100 for the full control effect; potency is the fitted concentration of half-maximal effect; tags give direction and shape of the fitted curve."}
{"test": "qHTS for Inhibitors of human tyrosyl-DNA phosphodiesterase 1 (TDP1): qHTS in cells in absence of CPT; note: nearly all actives have a fitted effect of over 55% in size", "settings": "DT40 Tdp1-/- hTDP1 cells, no CPT, ATP luminescence, 48 h; activity change, negative = growth inhibition: at 46.2 µM (top of the series) unless noted", "procedure,_shortened": "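No-CPT arm: Tdp1-/-;hTDP1 DT40 cells (400/well) plus compounds, incubated ≥48 hr at 37 °C. Readout CellTiter-Glo luminescence.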"}
{"molecule": "CCOc1cccc2cc(-c3nc(-c4ccccc4C)no3)c(=O)oc12", "Potency": "inconclusive [inhibitor, single point]"}
{"molecule": "Clc1ccccc1-c1ccc2nccn2c1", "Potency": "inactive"}
{"molecule": "COC(=O)c1cccc(C(=O)N2CCc3c(cnc(C)c3CNC(=O)/C=C/c3cccs3)C2)c1", "Potency": "inactive"}
{"molecule": "Cc1cccc(N2CCN(C(=O)CCN3C(=S)NC(C)(C)CC3C)CC2)c1C", "note": "(configuration not stated)", "Potency": "inconclusive [inhibitor, single point]"}
{"molecule": "COc1ccc(COc2ccccc2C(=O)NCc2ccccc2)cc1F", "Potency": "inconclusive [inhibitor, single point]"}
{"molecule": "Cc1ccc(Oc2c(C(F)(F)F)oc3c(CN4CCCCC4)c(O)ccc3c2=O)cc1", "Potency": "inconclusive [inhibitor, single point]"}
{"molecule": "COc1ccc(-c2cc3nc(NCCCN(C)C)n(C)c(=O)c3s2)c(C)c1", "Potency": "inconclusive [inhibitor, single point]"}
{"molecule": "CCCSc1nnc(-c2c[nH]c3ccccc23)n1C", "Potency": "inconclusive [inhibitor, partial curve, poor fit]"}
{"molecule": "CCOc1ccc(C2C(C(=O)c3cccs3)=C(O)C(=O)N2CCCn2ccnc2)cc1", "note": "(configuration not stated)", "Potency": "inactive"}
{"molecule": "CCC(=O)N1CCc2cc(S(=O)(=O)NCCC(=O)N3CCN(c4cccc(OC)c4)CC3)ccc21", "Potency": "active: 13 µM"}
{"molecule": "COc1cc(NS(=O)(=O)c2ccc(C)cc2)ccc1-n1cnnn1", "Potency": "inactive"}
{"molecule": "COc1cc(OC)c2c(=O)c(-c3ccccc3)coc2c1", "Potency": "inconclusive [inhibitor, partial curve, poor fit]"}
{"molecule": "CN1CCN(c2ccnc(-c3ccoc3)n2)CC1", "Potency": "inconclusive [inhibitor, single point]"}
{"molecule": "COc1ccc(NS(=O)(=O)c2ccc(C(=O)N3CCN(Cc4ccccc4)CC3)cc2)cc1", "Potency": "inconclusive [inhibitor, single point]"}
{"molecule": "Cn1c(SCc2ccc(Cl)cc2)nnc1-c1ccc2nonc2c1", "Potency": "inconclusive [inhibitor, single point]"}
{"molecule": "O=C(CN1C(=O)NC(c2ccccc2)(c2ccccc2)C1=O)NCc1ccc(F)cc1", "Potency": "inactive"}
{"molecule": "O=C(O)C(Cc1c[nH]c2ccccc12)N1CCS(=O)(=O)CC1", "note": "(configuration not stated)", "Potency": "inactive"}
{"molecule": "Cc1nc2c(-c3ccccc3)c(C)nn2c(C)c1CCC(=O)NC(C)c1ccccc1", "note": "(configuration not stated)", "Potency": "inconclusive [inhibitor, single point]"}
{"molecule": "CCCC1=C(C(=O)OCC)C(c2c(C)nn(-c3ccccc3)c2Cl)C(C#N)=C(N)O1", "note": "(configuration not stated)", "Potency": "active: 20.6 µM"}
{"molecule": "COc1cccc(CNC(=O)C2CCCN(S(=O)(=O)c3ccc4c(ccn4C)c3)C2)c1", "note": "(configuration not stated)", "Potency": "inconclusive [inhibitor, partial curve, poor fit]"}
{"molecule": "O=C(Nc1ccc(F)cc1)c1ccc(COc2ccccc2)cc1", "Potency": "inactive"}
{"molecule": "CCOc1ccc(/C=c2\\sc3nc(-c4ccco4)nn3c2=O)cc1OCC", "Potency": "inactive"}
{"molecule": "CN1CCN(CCCNc2nc3ccccc3c3nc(-c4ccccc4)nn23)CC1", "Potency": "active: 13 µM"}
{"molecule": "COc1ccc(-c2cc(NC=O)c3ncc(-c4cccc(C(C)=O)c4)n3c2)cc1", "Potency": "active: 18.4 µM"}
{"molecule": "COc1ccc(N2C(=O)CC(N3CCOCC3)C2=O)cc1", "note": "(configuration not stated)", "activity change, negative = growth inhibition": "inconclusive: -31% [inhibitor]"}
{"molecule": "COc1cc(CN(C(=O)Nc2ccccc2)c2ccccn2)cc(OC)c1OC", "Potency": "inconclusive [inhibitor, single point]"}
{"molecule": "CCn1c(=S)sc2c(=O)[nH]c(SCC(=O)Nc3cc(OC)ccc3OC)nc21", "Potency": "inactive"}
{"molecule": "CC1CN(CCOc2cccc(Oc3ccccc3)c2)CC(C)O1", "note": "(configuration not stated)", "Potency": "inconclusive [inhibitor, single point]"}
{"molecule": "CCC(C(=O)Nc1ccc(C(=O)OC)cc1)n1c(=O)c(-c2ccccc2NC(C)=O)nc2ccccc21", "note": "(configuration not stated)", "Potency": "active: 3.26 µM"}
{"molecule": "O=C(CC1N=C2c3ccccc3N=C(SCc3ccc(Cl)cc3)N2C1=O)NCc1ccco1", "note": "(configuration not stated)", "activity change, negative = growth inhibition": "inconclusive: -32.1% [inhibitor]"}
{"molecule": "COc1cccc(C2CC(c3ccc(Cl)cc3Cl)Nc3nc(N)nn32)c1", "note": "(configuration not stated)", "Potency": "active: 23.1 µM"}
{"molecule": "CC(C)c1c(C(=O)N/N=C/c2ccc(C(F)(F)F)cc2)nnn1-c1nonc1N", "Potency": "active: 13 µM"}
{"molecule": "CC1CCc2c(sc3ncnc(SC(C)C(=O)NCC4CCCO4)c23)C1", "note": "(configuration not stated)", "Potency": "active: 20.6 µM"}
{"molecule": "Cn1c(=O)c2c(nc(NCC(O)CO)n2CCc2ccccc2)n(C)c1=O", "note": "(configuration not stated)", "Potency": "inconclusive [inhibitor, full curve]"}
{"molecule": "Nc1ccn([C@@H]2O[C@H](CO)[C@@H](O)C2O)c(=O)n1", "note": "(some centres not stated)", "Potency": "active: 94.4 nM and active: 41.1 nM"}
{"molecule": "CCC1CCCCN1C(=O)CSc1nc2ncccc2[nH]1", "note": "(configuration not stated)", "Potency": "inactive"}
{"molecule": "Cc1c2ccccc2nc2c(F)c(N(C)C)c(F)c(F)c12", "Potency": "inconclusive [inhibitor, single point]"}
{"molecule": "O=C1N/C(=N\\c2ccccn2)SC1Cc1ccccc1Cl", "note": "(configuration not stated)", "Potency": "inconclusive [inhibitor, partial curve]"}
{"molecule": "Cc1ccc(N2CCN(c3ccc(C)cc3)C2c2ccncc2)cc1", "Potency": "inconclusive [inhibitor, partial curve]"}
{"molecule": "Cc1[nH]c2ccccc2c1C(=O)C(=O)N1c2ccccc2CC1C", "note": "(configuration not stated)", "Potency": "inconclusive [inhibitor, single point]"}
{"molecule": "CCC1CN(CCNC(=O)c2cn3cc(C)ccc3n2)Cc2cc(OC)ccc2O1", "note": "(configuration not stated)", "Potency": "inconclusive [inhibitor, single point]"}
{"molecule": "CC(C)CCNC(=O)c1cccc(Nc2nc3ccccc3n3nnnc23)c1", "Potency": "active: 18.4 µM"}
{"molecule": "CCCCSCCCNC(=O)c1ccc2c(c1)N(CC)C(=O)c1ccccc1S2=O", "note": "(configuration not stated)", "Potency": "inconclusive [inhibitor, partial curve]"}
{"molecule": "Cc1ccc(NC(=S)Nc2cccc3ccccc23)cc1F", "Potency": "inactive"}
{"molecule": "Cc1cc(C)c(COCc2cc(/C=N/O)c(C)cc2C)cc1/C=N/O", "Potency": "inconclusive [inhibitor, single point]"}
{"molecule": "COC(=O)c1c(NC(=O)Cc2ccccc2)sc2c1C(C(=O)OC)CC2", "note": "(configuration not stated)", "Potency": "inconclusive [inhibitor, single point]"}
{"molecule": "COc1ccc(Cl)cc1NC(=O)c1ccc2nc(Cc3ccccc3)oc2c1", "Potency": "inconclusive [inhibitor, single point]"}
{"molecule": "Cc1ccc(NC(=O)c2cc(S(=O)(=O)NCCC3=CCCCC3)ccc2F)cc1F", "Potency": "active: 16.4 µM"}
{"molecule": "C/C(=N\\NC(=O)c1nn(C)cc1Br)c1cccc(NC(=O)C2CCCC2)c1", "Potency": "inconclusive [inhibitor, single point]"}
{"molecule": "COC(=O)c1ccccc1NC(=O)CN1CCC(C(=O)c2ccc3c(c2)OCCO3)CC1", "Potency": "inconclusive [inhibitor, single point]"}
{"molecule": "Cc1c(NC(=O)c2cc(-c3ccc(Cl)s3)nc3ccccc23)c(=O)n(-c2ccccc2)n1C", "Potency": "active: 16.4 µM"}
{"molecule": "CCCS(=O)(=O)n1nc(-c2ccc(Br)cc2)cc1N", "Potency": "inconclusive [inhibitor, single point]"}
{"molecule": "CCCS(=O)(=O)Nc1cc(C(F)(F)F)ccc1OCCOC", "Potency": "inactive"}
{"molecule": "CN1CCN(c2ccccc2NC(=O)Cc2cn(C)c3ccccc23)CC1", "Potency": "inconclusive [inhibitor, single point]"}
{"molecule": "Cc1ccc(-n2nc(C(=O)N3CCN(c4cc(Cl)ccc4C)CC3)c(=O)n(C)c2=O)cc1", "Potency": "inconclusive [inhibitor, single point]"}
{"molecule": "O=Cc1c(NCc2cccc(F)c2)c2ccccc2[nH]c1=O", "Potency": "inactive"}
{"molecule": "C[C@@H]1NC(=O)N(CCCn2ccnc2)C1=O", "Potency": "inactive"}
{"molecule": "COc1ccc(NC(=O)c2cccc(OS(=O)(=O)N(C)C)c2)cc1", "Potency": "active: 5.17 µM"}
{"molecule": "Cc1ccc(S(=O)(=O)N2[C@H](CC(=O)c3cccs3)OC[C@@H]2C)cc1", "Potency": "active: 23.1 µM"}
{"molecule": "CC(NC(=O)c1ccc(S(=O)(=O)C(F)F)cc1)c1ccccc1", "note": "(configuration not stated)", "Potency": "inconclusive [inhibitor, single point]"}
{"molecule": "CCN(CC(=O)Nc1ccc(NC(C)=O)cc1)C(=O)C1CCN(C(=O)c2ccccc2C)CC1", "Potency": "inactive"}
{"molecule": "CCOc1ccc(S(=O)(=O)NCCC(=O)N2CCN(c3ncccn3)CC2)cc1", "Potency": "inconclusive [inhibitor, single point]"}
{"molecule": "CCOC(=O)c1nc(C)nc(Sc2n[nH]c(-c3cc(Cl)cc(Cl)c3)n2)c1C", "Potency": "inconclusive [inhibitor, partial curve, poor fit]"}
{"molecule": "COc1ccc(C(C(=O)Nc2ccc3c(c2)OCCO3)n2c(=O)c(-c3ccco3)nc3ccccc32)cc1", "note": "(configuration not stated)", "Potency": "active: 20.6 µM"}
{"molecule": "CC(C)(C)c1ccc(C(=O)c2c[nH]c(C(=O)NCC3CCCO3)c2)cc1", "note": "(configuration not stated)", "Potency": "active: 14.6 µM"}
{"molecule": "CC1CCc2sc(NC(=O)c3ccc(N4C(=O)CCC4=O)cc3)c(C(N)=O)c2C1", "note": "(configuration not stated)", "Potency": "inconclusive [inhibitor, single point]"}
{"molecule": "CCn1c(=O)c(CCC(=O)NCC2CCCO2)c(C)c2c(C)nn(-c3ccccc3)c21", "note": "(configuration not stated)", "Potency": "inconclusive [inhibitor, single point]"}
{"molecule": "CCc1ccc(C(=O)c2cn(CC(=O)Nc3ccc(F)c(F)c3)c3cc(OC)c(OC)cc3c2=O)cc1", "Potency": "active: 16.4 µM"}
{"molecule": "CCc1cc2c(SCC#N)ncnc2s1", "Potency": "inconclusive [inhibitor, partial curve]"}
{"molecule": "Cc1cc([N+](=O)[O-])nn1CC(=O)N1c2ccccc2CC1C", "note": "(configuration not stated)", "Potency": "inactive"}
{"molecule": "O=C(c1ccccc1F)N1CCN(c2ccc([N+](=O)[O-])c(NCc3cccnc3)c2)CC1", "Potency": "inconclusive [inhibitor, partial curve]"}
{"molecule": "COc1ccc(NC(=O)C(NS(=O)(=O)c2ccc3c(c2)CCCC(=O)N3)C(C)C)c(OC)c1", "note": "(configuration not stated)", "Potency": "inactive"}
